The whole screen tested about 50,000 compounds, of which about 800 (1.6%) showed an effect of 50% or more. This is one part of the list.
biological target: Bcl-2-like protein 10 (Homo sapiens) (UniProt Q9HD36); experiment: TR3 peptide-Bcl-B binding displacers, biochemical primary FP assay, phenotype converters (AID 1240); conditions: GST-Bcl-B / FITC-TR3 peptide fluorescence polarization; stronger effect = higher value; compound at 3.75 mg/L;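 further: 0% = Bcl-B with tracer peptide and DMSO and 100% = tracer peptide lacking Bcl-B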
Sequence of UniProt Q9HD36 (Q9HD36 whole entry, looked up): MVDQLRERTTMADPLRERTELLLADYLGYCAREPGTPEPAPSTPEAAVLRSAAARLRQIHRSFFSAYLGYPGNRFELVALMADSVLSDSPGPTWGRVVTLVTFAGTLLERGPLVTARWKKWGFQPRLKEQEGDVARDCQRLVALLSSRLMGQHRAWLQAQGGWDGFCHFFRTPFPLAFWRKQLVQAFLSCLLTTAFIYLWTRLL

| SMILES | displacement |
| --- | --- |
| Cc1ccc(S(=O)(=O)N(CC(=O)Nc2cccc(C)c2)c2cccc(Cl)c2C)cc1 | -7.7% |
| Cc1nonc1N=Cc1cc(I)cc(I)c1O | -5.7% |
| CCOC(=O)c1sc(NC(=O)c2c(-c3ccccc3Cl)noc2C)c(C(=O)OCC)c1C | 36.2% |
| CC1(C)CC(=O)c2cnc(NC(=O)Cc3ccc(Cl)cc3)nc2C1 | -0.2% |
| Cc1ccc(NC(=O)C(=O)NCCN2CCN(S(=O)(=O)c3ccc4ccccc4c3)CC2)cc1 | 7.5% |
| CCCOc1ccc(C=C2C(=O)N(C)C(=O)N(C)C2=O)cc1OC | 1.3% |
| CCN(CC)c1ccc(/C=C2/SC(=S)N(CN3CCCCC3)C2=O)cc1 | -22.2% |
| CCOc1cc(/C=c2/sc3nc4ccccc4n3c2=O)cc(I)c1OCC | 77.3% |
| CCN(CC(O)Cn1c2ccccc2c2ccccc21)S(=O)(=O)c1ccc(C)cc1 (stereo unspecified) | -0.9% |
| COc1ccc(N2C(=O)CC(N3CCC(O)CC3)C2=O)cc1 (stereo unspecified) | -0.8% |
| CC1(C)CC(=O)C2=C(C1)OC1=C(C(=O)CC(C)(C)C1)C2c1ccc(-c2ccc3c(c2)COC3=O)o1 | 2.3% |
| COC(=O)Cn1cnc(=O)c(C#N)c1C | 2% |
| O=S(=O)(O)c1cc(-n2nc3ccc4c(S(=O)(=O)O)cccc4c3n2)ccc1/C=C/c1ccccc1 | 17.1% |
| Cc1ccc(-c2nnc3s/c(=C\c4ccccc4)c(=O)n23)cc1 | -23.9% |
| CCOC(=O)c1c(NC(=O)CC(c2ccccc2)c2ccccc2)sc(C(N)=O)c1C | 0.4% |
| CC(O)C#CCN1C(C)CCCC1C (stereo unspecified) | 1.8% |
| CC(=O)C1C(=O)c2ccccc2/C1=N/N=C/c1ccc([N+](=O)[O-])cc1 (stereo unspecified) | -13.6% |
| CC(=O)c1c(NCCc2ccccc2)nc(=O)n(-c2ccccc2)c1C | -3.1% |
| COc1ccc(CC(=O)Nc2ccc(-c3nc4ccccc4[nH]3)cc2)cc1OC | -10.2% |
| CCOC(=O)c1c(N2CCOCC2)c2ccccc2[nH]c1=O | -10.7% |
| COc1ccc(C2/C(=C(/O)c3ccc(C)cc3)C(=O)C(=O)N2CCCn2ccnc2)cc1OC (stereo unspecified) | -3.4% |
| N#CC1=C(SCC(=O)Nc2ccccc2)NC(=O)C(C#N)C12CCCC2 (stereo unspecified) | 6.8% |

| SMILES | displacement |
| --- | --- |
| O=C(c1c(F)cccc1F)N1CCN(c2cc(N3CCOCC3)c(F)cc2[N+](=O)[O-])CC1 | -12.7% |
| O=[N+]([O-])c1ccc(/C=N/Nc2c(Cl)cc(Cl)cc2Cl)cc1 | 6.7% |
| COc1cc(C2Nc3ccccc3NC3=C2C(=O)CC(c2ccc(Cl)cc2)C3)cc(Br)c1O (stereo unspecified) | 10.8% |
| COc1ccccc1C1/C(=C(\O)c2ccc(C)cc2)C(=O)C(=O)N1CCCC(=O)O (stereo unspecified) | -3.5% |
| COc1cc(OC)c(C2NC(=O)NC(C)=C2C(=O)Nc2ccccc2C)cc1OC (stereo unspecified) | 13.3% |
| CCOCCOC(=O)C1=C(C)NC2=C(C(=O)CC(C)(C)C2)C1c1cccc(O)c1 (stereo unspecified) | 7.3% |
| Cn1/c(=N/N=C/c2cccc(C(F)(F)F)c2)sc2ccccc21 | -9.9% |
| COc1cc2c(cc1NCc1ccc3c(c1)OCO3)oc1ccccc12 | -11% |
| CCOc1cc(OCC)cc(C(=O)Nc2cc(-c3nc4ccccc4s3)ccc2Cl)c1 | 18.2% |
| Cc1cccc(-c2n[nH]c(=S)n2-c2ccccc2)c1 | 14.4% |
| N#Cc1ccccc1C(C(N)=O)(c1ccccc1)c1ccccc1C#N | -0.9% |
| Cc1ccccc1S(=O)(=O)Nc1cc(Br)c2oc3c(c2c1)C(=O)CCC3 | 2.5% |
| O=C(NCc1ccccn1)c1cc(-c2ccccc2Cl)nc2ccccc12 | 1.4% |
| O=C1/C(=C/c2ccc(-c3ccccc3[N+](=O)[O-])o2)SC(=S)N1c1cccc(Cl)c1 | 73.5% |
| O=C(/C=C/c1ccc(F)cc1)N1CCN(c2cccc(Cl)c2)CC1 | 7.5% |
| O=C1C2C3C=CC(C4CC34)C2C(=O)N1Cc1ccccc1 (stereo unspecified) | -5% |
| COc1ccc(C(=O)/C=C/Nc2ccc(Br)c(C)c2)cc1 | 14.5% |
| CC(=O)Nc1ccc(N2C(=O)c3cccc4c(C(=O)c5ccccc5)ccc(c34)C2=O)cc1 | 7.4% |
| COC(=O)C1=C(C)NC(=O)CC1c1ccc(C(F)(F)F)cc1 (stereo unspecified) | 5.8% |
| O=C(c1ccccc1)c1ccccc1C(=O)N1CCCCC1 | 2.2% |
| O=[N+]([O-])c1ccc(/C=N/n2cnnc2SCc2ccccc2)cc1 | -4.5% |
| N#CC1=C(N)Oc2c(ccc3ccccc23)C1c1ccc(Cl)cc1Cl (stereo unspecified) | -3.5% |

| SMILES | displacement |
| --- | --- |
| Cc1ccc(S(=O)(=O)NCCNS(C)(=O)=O)cc1[N+](=O)[O-] | 9.4% |
| CN1C(=O)/C(=C/c2ccc(-c3ccc(F)cc3)o2)SC1=S | 8.1% |
| COc1ccc(/C=C(/C(=O)c2c(C)cc(C)[nH]c2=O)c2ccccc2)cc1 | 7.1% |
| CCc1nn(-c2ccccc2)c(N)c1C | 10.5% |
| O=C(NC1=NCCS1)C1CC2CCC1C2 (stereo unspecified) | 11.1% |
| CCOP(=O)(OCC)C(Nc1cccc(C(F)(F)F)c1)c1cc(Cl)cc(Cl)c1OC (stereo unspecified) | -4.5% |
| COc1cccc(C2NC(=O)NC(C)=C2C(=O)Nc2ccccc2C)c1 (stereo unspecified) | 4.3% |
| N#CCCn1cc(/C=C2\N=C(c3ccccc3)OC2=O)c(-c2ccc(Cl)cc2)n1 | -7.5% |
| Cc1ccc(-c2csc(NC(=O)C3CC=CCC3C(=O)O)c2C(=O)OC(C)C)cc1 (stereo unspecified) | -3.1% |
| CCC(C)(C)C1CCC2(CC1)NC(CO)(CO)CO2 (stereo unspecified) | -6.9% |
| CCOC(=O)N1CCN(C(=O)C(C)N2C(=O)c3ccccc3C2=O)CC1 (stereo unspecified) | -1.9% |
| O=C(Nc1cccc([N+](=O)[O-])c1)c1cccc(S(=O)(=O)N(CCO)CCO)c1 | -13.4% |
| COc1ccc(Cl)cc1N(CC(=O)NCCSc1ccc(C)cc1)S(=O)(=O)c1ccccc1 | 2.8% |
| C/C(=C\C(=O)OC1CC(C)(C)NC(C)(C)C1)NC1CC(C)(C)NC(C)(C)C1 | 5.9% |
| C=CCc1cccc2cc(C(=O)NNC(=O)CC#N)c(=O)oc12 | 20.6% |
| O=S(=O)(Nc1cccc(F)c1)c1ccc2ccccc2c1 | -0.8% |
| C=CCNC(=O)C(=O)NCc1ccc(C)cc1 | 12.1% |
| COc1ccc(CN2CCN(S(=O)(=O)c3ccc(C)cc3)CC2)c(OC)c1 | -0.7% |
| CC1CCN(C(=O)C(C(C)C)N2C(=O)c3ccccc3C2=O)CC1 (stereo unspecified) | 1.7% |
| CCOC(=O)c1c(-c2ccccc2)csc1NC(=O)c1ccc(N2C(=O)CCC2=O)cc1 | -6.7% |
| CC(C(=O)c1ccccc1)C(=O)c1ccccc1 | 4.3% |
| O=C(/C=C/c1ccc(-c2ccccc2[N+](=O)[O-])o1)C12CC3CC(CC(C3)C1)C2 | 10.5% |

Source: PubChem BioAssay AID1240 (Sanford-Burnham Center for Chemical Genomics, 2008)
